Results: article PMC12820563, “FoxP3 forms a head-to-head dimer in vivo and stabilizes its multimerization on adjacent microsatellites”
The list shows a part of the results.

Target: T1, MBP-FoxP1dN (Mus musculus, UniProt P58462 326-579)
T1 sequence: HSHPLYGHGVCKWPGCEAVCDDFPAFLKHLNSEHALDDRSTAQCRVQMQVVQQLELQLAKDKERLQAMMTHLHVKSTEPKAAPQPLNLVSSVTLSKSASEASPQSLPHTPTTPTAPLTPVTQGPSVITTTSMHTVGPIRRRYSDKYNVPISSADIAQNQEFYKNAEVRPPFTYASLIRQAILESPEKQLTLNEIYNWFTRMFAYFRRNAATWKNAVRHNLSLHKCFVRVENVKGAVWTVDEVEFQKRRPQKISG
Assay: PD-seq (MBP pull-down with sequencing); 20 mM Tris-HCl pH 7.5, 100 mM NaCl, 1.5 mM MgCl2, 0.4 uM protein, 0.1 uM dsDNA library, 30 min, room temperature, amylose pull-down; high values mean tight binding
Details: protein: recombinant; tags: His6-MBP; chain copies: 2; dsDNA, one strand shown
In short: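 Binding is given as reads-per-million enrichment, pull-down over input, with replicates pooled. The bait was an N-terminus-lacking mouse FoxP3 or FoxP1 fragment with a His6-MBP tag, expressed in E. coli and used at 0.4 µM with 0.1 µM Klenow-filled degenerate double-stranded DNA library for 30 min at room temperature in Tris pH 7.5 buffer with NaCl and MgCl2. Amylose resin pull-down with three washes was followed by proteinase K release, PCR barcoding and Illumina sequencing.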

Row | Sequence | binding signal
1 | GATGATTGTTCTCCCAGCTGATGAATTCCACCAGTCGAGTAAACAAATTTTCCTAATCTTTCTGTTCAAGCGCCATCTAC | 0.757 RPM ratio (pull-down/input)
2 | GATGATTGTTCTCCCAGCTGATGAATTGCTCGTCTCGAGTAAACAAATTTTCCTAATCTTTCTGTTCAAGCGCCATCTAC | 0.898 RPM ratio (pull-down/input)
3 | GATGATTGTTCTCCCAGCTGATGAATTAGGTTGGTCGAGTAAACAAATTTTCCTAATCTTTCTGTTCAAGCGCCATCTAC | 0.907 RPM ratio (pull-down/input)
4 | GATGATTGTTCTCCCAGCTGATGAATTCAAACACTCGAGTAAACAAATTTTCCTAATCTTTCTGTTCAAGCGCCATCTAC | 1.2 RPM ratio (pull-down/input)
5 | GATGATTGTTCTCCCAGCTGATGAATTGCGGGAGTCGAGTAAACAAATTTTCCTAATCTTTCTGTTCAAGCGCCATCTAC | 0.927 RPM ratio (pull-down/input)
6 | GATGATTGTTCTCCCAGCTGATGAATTCCAGTTATCGAGTAAACAAATTTTCCTAATCTTTCTGTTCAAGCGCCATCTAC | 0.982 RPM ratio (pull-down/input)
7 | GATGATTGTTCTCCCAGCTGATGAATTAGCAATGTCGAGTAAACAAATTTTCCTAATCTTTCTGTTCAAGCGCCATCTAC | 0.985 RPM ratio (pull-down/input)
8 | GATGATTGTTCTCCCAGCTGATGAATTCCAACTCTCGAGTAAACAAATTTTCCTAATCTTTCTGTTCAAGCGCCATCTAC | 0.814 RPM ratio (pull-down/input)
9 | GATGATTGTTCTCCCAGCTGATGAATTCTCGAAGTCGAGTAAACAAATTTTCCTAATCTTTCTGTTCAAGCGCCATCTAC | 0.777 RPM ratio (pull-down/input)
10 | GATGATTGTTCTCCCAGCTGATGAATTGGTCAAATCGAGTAAACAAATTTTCCTAATCTTTCTGTTCAAGCGCCATCTAC | 1.06 RPM ratio (pull-down/input)
11 | GATGATTGTTCTCCCAGCTGATGAATTGGCAGTGTCGAGTAAACAAATTTTCCTAATCTTTCTGTTCAAGCGCCATCTAC | 0.878 RPM ratio (pull-down/input)
12 | GATGATTGTTCTCCCAGCTGATGAATTTCTCAGATCGAGTAAACAAATTTTCCTAATCTTTCTGTTCAAGCGCCATCTAC | 0.8 RPM ratio (pull-down/input)
13 | GATGATTGTTCTCCCAGCTGATGAATTACTGTGATCGAGTAAACAAATTTTCCTAATCTTTCTGTTCAAGCGCCATCTAC | 1.11 RPM ratio (pull-down/input)
14 | GATGATTGTTCTCCCAGCTGATGAATTTCATTGCTCGAGTAAACAAATTTTCCTAATCTTTCTGTTCAAGCGCCATCTAC | 0.797 RPM ratio (pull-down/input)
15 | GATGATTGTTCTCCCAGCTGATGAATTAGCACACTCGAGTAAACAAATTTTCCTAATCTTTCTGTTCAAGCGCCATCTAC | 0.921 RPM ratio (pull-down/input)
16 | GATGATTGTTCTCCCAGCTGATGAATTGGCTGTGTCGAGTAAACAAATTTTCCTAATCTTTCTGTTCAAGCGCCATCTAC | 0.893 RPM ratio (pull-down/input)

Row | Sequence | binding signal
17 | GATGATTGTTCTCCCAGCTGATGAATTACGTACTTCGAGTAAACAAATTTTCCTAATCTTTCTGTTCAAGCGCCATCTAC | 1.05 RPM ratio (pull-down/input)
18 | GATGATTGTTCTCCCAGCTGATGAATTGTCACTCTCGAGTAAACAAATTTTCCTAATCTTTCTGTTCAAGCGCCATCTAC | 1.05 RPM ratio (pull-down/input)
19 | GATGATTGTTCTCCCAGCTGATGAATTTGGCCCTTCGAGTAAACAAATTTTCCTAATCTTTCTGTTCAAGCGCCATCTAC | 0.862 RPM ratio (pull-down/input)
20 | GATGATTGTTCTCCCAGCTGATGAATTCTACATGTCGAGTAAACAAATTTTCCTAATCTTTCTGTTCAAGCGCCATCTAC | 0.904 RPM ratio (pull-down/input)
21 | GATGATTGTTCTCCCAGCTGATGAATTCCTGTAATCGAGTAAACAAATTTTCCTAATCTTTCTGTTCAAGCGCCATCTAC | 1.3 RPM ratio (pull-down/input)
22 | GATGATTGTTCTCCCAGCTGATGAATTAGCCGTCTCGAGTAAACAAATTTTCCTAATCTTTCTGTTCAAGCGCCATCTAC | 0.819 RPM ratio (pull-down/input)
23 | GATGATTGTTCTCCCAGCTGATGAATTGCCATTCTCGAGTAAACAAATTTTCCTAATCTTTCTGTTCAAGCGCCATCTAC | 1.01 RPM ratio (pull-down/input)
24 | GATGATTGTTCTCCCAGCTGATGAATTCGCTGTGTCGAGTAAACAAATTTTCCTAATCTTTCTGTTCAAGCGCCATCTAC | 0.881 RPM ratio (pull-down/input)
25 | GATGATTGTTCTCCCAGCTGATGAATTTTGGGAGTCGAGTAAACAAATTTTCCTAATCTTTCTGTTCAAGCGCCATCTAC | 0.822 RPM ratio (pull-down/input)
26 | GATGATTGTTCTCCCAGCTGATGAATTACCGGCATCGAGTAAACAAATTTTCCTAATCTTTCTGTTCAAGCGCCATCTAC | 1.1 RPM ratio (pull-down/input)
27 | GATGATTGTTCTCCCAGCTGATGAATTACTGTACTCGAGTAAACAAATTTTCCTAATCTTTCTGTTCAAGCGCCATCTAC | 1.04 RPM ratio (pull-down/input)
28 | GATGATTGTTCTCCCAGCTGATGAATTCAAGGTCTCGAGTAAACAAATTTTCCTAATCTTTCTGTTCAAGCGCCATCTAC | 0.852 RPM ratio (pull-down/input)
29 | GATGATTGTTCTCCCAGCTGATGAATTGCACTAATCGAGTAAACAAATTTTCCTAATCTTTCTGTTCAAGCGCCATCTAC | 1.34 RPM ratio (pull-down/input)
30 | GATGATTGTTCTCCCAGCTGATGAATTGACGGTTTCGAGTAAACAAATTTTCCTAATCTTTCTGTTCAAGCGCCATCTAC | 0.976 RPM ratio (pull-down/input)
31 | GATGATTGTTCTCCCAGCTGATGAATTACGCGCATCGAGTAAACAAATTTTCCTAATCTTTCTGTTCAAGCGCCATCTAC | 1.27 RPM ratio (pull-down/input)
32 | GATGATTGTTCTCCCAGCTGATGAATTCGACACGTCGAGTAAACAAATTTTCCTAATCTTTCTGTTCAAGCGCCATCTAC | 0.896 RPM ratio (pull-down/input)
